{
  "source": "PubChem BioAssay AID504332",
  "about": "(National Center for Advancing Translational Sciences (NCATS), 2011)",
  "note": "Among all 350,000 compounds or so, about 31,000 (8.9%) were called active. The inconclusive results got no clear call from the source; some entries with a clear call stand among them for comparison. The call rests on the fitted dose curve; in most records, active means well fitted inhibition curve with a large enough effect; inconclusive means small, poorly fitted or top-dose-only effect; inactive means no such curve, though single readings can be large or run the other way. Potencies of inconclusive entries are doubtful fits and often do not repeat. Where a structure was tested more than once in an assay, its records may differ in their call. On the % scale 0 is the no-effect control and ±100 the full control effect; potency means the concentration at half of the fitted maximal effect; tags describe the fitted curve by direction and shape.",
  "data": [
    {"target": "Histone-lysine N-methyltransferase EHMT2 (Homo sapiens) (UniProt Q96KQ7)", "sequence (Q96KQ7 whole entry, looked up)": "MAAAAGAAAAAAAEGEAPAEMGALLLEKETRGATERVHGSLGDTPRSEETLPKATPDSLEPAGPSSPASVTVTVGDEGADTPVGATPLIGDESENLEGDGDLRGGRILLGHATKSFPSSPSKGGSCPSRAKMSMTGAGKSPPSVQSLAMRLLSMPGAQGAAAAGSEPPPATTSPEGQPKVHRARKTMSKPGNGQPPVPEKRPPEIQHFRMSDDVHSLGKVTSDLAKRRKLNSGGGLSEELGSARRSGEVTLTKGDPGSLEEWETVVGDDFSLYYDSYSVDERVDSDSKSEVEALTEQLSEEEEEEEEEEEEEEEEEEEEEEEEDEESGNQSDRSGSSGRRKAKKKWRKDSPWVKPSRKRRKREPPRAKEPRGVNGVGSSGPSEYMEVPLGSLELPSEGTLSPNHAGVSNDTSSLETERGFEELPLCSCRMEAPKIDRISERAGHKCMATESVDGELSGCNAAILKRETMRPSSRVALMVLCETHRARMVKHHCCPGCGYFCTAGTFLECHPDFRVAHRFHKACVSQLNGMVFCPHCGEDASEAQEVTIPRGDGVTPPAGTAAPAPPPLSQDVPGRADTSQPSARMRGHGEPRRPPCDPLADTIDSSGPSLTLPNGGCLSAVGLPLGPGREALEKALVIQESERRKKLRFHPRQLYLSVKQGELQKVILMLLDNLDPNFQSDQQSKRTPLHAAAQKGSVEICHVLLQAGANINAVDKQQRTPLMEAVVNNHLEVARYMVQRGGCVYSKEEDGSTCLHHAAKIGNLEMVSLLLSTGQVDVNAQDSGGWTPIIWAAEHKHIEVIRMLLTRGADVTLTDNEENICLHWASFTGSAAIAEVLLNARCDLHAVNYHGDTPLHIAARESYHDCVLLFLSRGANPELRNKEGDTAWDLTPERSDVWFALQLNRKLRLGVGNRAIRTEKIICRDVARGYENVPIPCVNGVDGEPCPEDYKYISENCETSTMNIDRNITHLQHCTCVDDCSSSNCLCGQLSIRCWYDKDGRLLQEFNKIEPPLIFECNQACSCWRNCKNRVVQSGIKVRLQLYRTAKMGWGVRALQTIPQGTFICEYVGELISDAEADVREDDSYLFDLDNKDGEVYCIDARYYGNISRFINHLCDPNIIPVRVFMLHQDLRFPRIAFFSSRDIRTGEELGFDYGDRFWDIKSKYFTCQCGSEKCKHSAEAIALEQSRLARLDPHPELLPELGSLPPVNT", "assay": "qHTS Assay for Inhibitors of Histone Lysine Methyltransferase G9a; further: nearly all actives have a fitted effect of over 75% in size", "conditions": "G9a H3K9 monomethylation, AlphaScreen, 2 h; activity, negative = inhibition: at 59 µM (top of the series) unless noted", "procedure,_shortened": "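Methyltransferase reactions run at room temperature for 2 h (20 nM enzyme, 500 nM biotin-H3K9 peptide, 20 uM SAM) after a 15 min compound preincubation; product detected by AlphaScreen beads and anti-H3K9me1 antibody.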", "values": [
      {"smiles": "CCCCNC(=O)CCn1c(=S)[nH]c2cc3c(cc2c1=O)OCO3", "activity, negative = inhibition": "inactive: 5.03% [at 0.0925 µM]"},
      {"smiles": "COc1ccc(-n2nc([N+](=O)[O-])c(=NCc3ccco3)n2O)cc1", "Potency": "inconclusive: 44.7 µM [inhibitor, partial curve]"},
      {"smiles": "Nc1ncnc2nc(SCC(=O)Nc3cccc(C(F)(F)F)c3)[nH]c12", "Potency": "active: 35.5 µM"},
      {"smiles": "O=[N+]([O-])c1cccnc1N1CCC(c2cc(-c3ccc(Cl)cc3Cl)n[nH]2)CC1", "activity, negative = inhibition": "inconclusive: -74.6% [inhibitor]"},
      {"smiles": "COc1cc(/C=N/NC2=NC(C)(C)Cc3ccccc32)cc(OC)c1OC", "Potency": "inconclusive: 50.1 µM [inhibitor, partial curve]"},
      {"smiles": "COc1ccc(C(=O)/C(C#N)=N/Nc2cccc([N+](=O)[O-])c2)cc1", "activity, negative = inhibition": "inconclusive: -81.8% [inhibitor]"},
      {"smiles": "Cc1cc(OCc2ccc(C(=O)Nc3ccc(C(=O)O)cc3)o2)ccc1Cl", "Potency": "inconclusive: 89.1 µM [inhibitor, single point]"},
      {"smiles": "Cc1cc(C)c(S(=O)(=O)Nc2ccc3oc4c(c3c2)CCCC4)cc1C", "Potency": "inconclusive: 7.94 µM [inhibitor, partial curve, poor fit]"},
      {"smiles": "CN(C)CCN(C(=O)c1ccccc1Cl)c1nc2c(Cl)cccc2s1", "Potency": "active: 10 µM"},
      {"smiles": "CC(O)(C#CCN1CCOCC1)c1ccccc1", "note": "(centres undefined)", "Potency": "active: 39.8 µM"},
      {"smiles": "O=C(CCNNC(=O)c1ccncc1)NCc1ccccc1", "Potency": "active: 10 µM"},
      {"smiles": "Cn1c(=O)c(-c2cc(=O)[nH][nH]2)c(O)c2ccccc21", "activity, negative = inhibition": "inactive: -28.5% [at 102 µM]"},
      {"smiles": "Cc1ccc(C)c(S(=O)(=O)C(C#N)c2nc3ccccc3nc2N2CCOCC2)c1", "note": "(centres undefined)", "activity, negative = inhibition": "inconclusive: -79.5% [inhibitor]"},
      {"smiles": "Cc1ccc(-n2c3nc(=O)[nH]c(=O)c-3cc3cc([N+](=O)[O-])ccc32)cc1", "Potency": "inconclusive: 39.8 µM [inhibitor, single point]"},
      {"smiles": "COc1ccc(C(=O)c2coc3ccc(O)cc23)cc1", "activity, negative = inhibition": "inactive: 10.9% [at 102 µM]"},
      {"smiles": "COc1ccc(NC(=O)CSc2ccc(-c3ccco3)nn2)cc1OC", "Potency": "inconclusive: 5.01 µM [inhibitor, full curve]"},
      {"smiles": "C=CCn1c(CCC(O)COCCC)n[nH]c1=S", "note": "(centres undefined)", "activity, negative = inhibition": "inactive: -33.9% [at 102 µM]"},
      {"smiles": "COc1ccc(NC(=O)CN(C)C(=O)c2c(-c3ccccc3Cl)noc2C)cc1", "Potency": "inconclusive: 44.7 µM [inhibitor, partial curve, poor fit]"},
      {"smiles": "O=C(CNC(=S)N(CCCN1CCOCC1)Cc1cccs1)N1CCOCC1", "activity, negative = inhibition": "inactive: 11%"},
      {"smiles": "COc1cccc(N2CC(C(=O)Nc3nnc(SCCN4CCOCC4)s3)CC2=O)c1", "note": "(centres undefined)", "Potency": "active: 39.8 µM"},
      {"smiles": "COc1ccc(CN2CCCC(C(=O)N3CCCCC3)C2)cc1", "note": "(centres undefined)", "Potency": "active: 11.2 µM"},
      {"smiles": "CCOP(=O)(OCC)C(NC(=O)c1cc([N+](=O)[O-])cc([N+](=O)[O-])c1)C(F)(F)F", "note": "(centres undefined)", "Potency": "inconclusive: 1.58 µM [inhibitor, full curve, poor fit]"},
      {"smiles": "CCc1nn(CC(=O)Nc2ccc(C)c(F)c2)c(=O)c2cc3cc(C)ccc3n12", "activity, negative = inhibition": "inactive: -2.49%"},
      {"smiles": "COc1ccc(OC)c(-n2nnnc2SCC(=O)N2CCN(C(=O)c3ccco3)CC2)c1", "Potency": "inconclusive: 79.4 µM [inhibitor, partial curve, poor fit]"},
      {"smiles": "COc1ccccc1N1CCN(c2nc3ccc(C(=O)c4ccccc4)cc3n3c(C)nnc23)CC1", "Potency": "inconclusive: 7.08 µM [inhibitor, single point]"},
      {"smiles": "O=C(N/N=C/C=C\\c1ccccc1[N+](=O)[O-])c1ccncc1", "activity, negative = inhibition": "inactive: -34.9% [at 102 µM]"},
      {"smiles": "COc1cccc(CN2CCCC(N3CCc4ccccc4C3)C2)c1O", "note": "(centres undefined)", "Potency": "inconclusive: 70.8 µM [inhibitor, partial curve]"},
      {"smiles": "Oc1cccc(-c2nc3ccccc3s2)c1", "activity, negative = inhibition": "inconclusive: -69% [inhibitor]"},
      {"smiles": "Cc1ccc(NC(=O)COC(=O)COc2ccc(Cl)cc2C)c([N+](=O)[O-])c1", "Potency": "active: 28.2 µM"},
      {"smiles": "CC(C)Oc1ccc(C(=O)NCC(=O)Nc2ccc3c(c2)CCC3)cc1", "Potency": "inconclusive: 8.91 µM [inhibitor, single point]"},
      {"smiles": "COc1ccc(CCC(C)NCCc2ccc(Cl)cc2Cl)cc1", "note": "(centres undefined)", "Potency": "inconclusive: 89.1 µM [inhibitor, single point]"},
      {"smiles": "CCCN(Cc1cccs1)C(=O)Nc1cc(C)ccc1OC", "activity, negative = inhibition": "inactive: 5.34%"},
      {"smiles": "CCN1CCN(Cc2nc3cc(NC(=O)COc4ccc([N+](=O)[O-])cc4)ccc3n2C)CC1", "Potency": "inconclusive: 89.1 µM [inhibitor, single point]"},
      {"smiles": "CCNc1ncc2nc(-c3ccc(OC)cc3)c(=O)n(Cc3ccc(F)cc3)c2n1", "activity, negative = inhibition": "inactive: 0.472% [at 0.501 µM]"},
      {"smiles": "CC1CC2=C(NC(=S)NC2c2ccc(F)cc2)/C(=C/c2ccc(F)cc2)C1", "note": "(centres undefined)", "Potency": "active: 25.1 µM"},
      {"smiles": "S=c1[nH]nc(-c2cnccn2)n1-c1ccccc1", "Potency": "inconclusive: 1.26 µM [inhibitor, single point]"},
      {"smiles": "CCCCCn1c(=S)[nH]c2cc(C(=O)N3CCN(C(=O)OCC)CC3)ccc2c1=O", "Potency": "inconclusive: 100 µM [inhibitor, single point]"},
      {"smiles": "CC(C)(C)c1ccc(C(=O)NCC(=O)OCC(=O)Nc2ccc3c(c2)OCCO3)cc1", "Potency": "inconclusive: 39.8 µM [inhibitor, single point]"},
      {"smiles": "COc1cc(/C=C/C(=O)OCC(=O)NC2CC2)cc(S(=O)(=O)N2CCc3ccccc32)c1OC", "Potency": "active: 56.2 µM"},
      {"smiles": "CCCCN1CC(c2nc3ccccc3n2CCCCOc2ccccc2C)CC1=O", "note": "(centres undefined)", "Potency": "inconclusive: 28.2 µM [inhibitor, partial curve, poor fit]"},
      {"smiles": "Cc1c(NC(=O)CSCc2ccc(Br)cc2)c(=O)n(-c2ccccc2)n1C", "Potency": "inconclusive: 50.1 µM [inhibitor, partial curve, poor fit]"},
      {"smiles": "Oc1ccc2ccccc2c1CN1CCN(c2ccccc2)CC1", "Potency": "inconclusive: 2.24 µM [inhibitor, partial curve, poor fit]"},
      {"smiles": "COC(=O)c1sc(N)c(C(=O)OC)c1COC(=O)CNS(=O)(=O)c1ccc(C)c(C)c1", "Potency": "inconclusive: 31.6 µM [inhibitor, partial curve, poor fit]"},
      {"smiles": "COCCN(Cc1ccccc1)C(=O)C1CCN(S(=O)(=O)c2ccc(OC)c(OC)c2)CC1", "Potency": "inconclusive: 50.1 µM [inhibitor, partial curve, poor fit]"},
      {"smiles": "COc1cccc(/C(O)=C/C(=O)C(=O)Nc2ccc(S(=O)(=O)NC(C)=O)cc2)c1", "Potency": "active: 10 µM"},
      {"smiles": "C/C(=N\\NS(=O)(=O)c1cccc([N+](=O)[O-])c1)c1cc2ccccc2o1", "Potency": "active: 12.6 µM"},
      {"smiles": "C/C(CC(=O)NC1CCCCC1)=N\\NC(=O)Cc1ccc(-c2ccccc2)cc1", "Potency": "inconclusive: 50.1 µM [inhibitor, partial curve, poor fit]"},
      {"smiles": "CCOc1ccc(S(=O)(=O)NCC(c2ccc(N(C)C)cc2)N2CCCC2)cc1", "note": "(centres undefined)", "Potency": "active: 20 µM"},
      {"smiles": "Cn1cc(Br)c(C(=O)N2CCCCCC2)n1", "Potency": "inconclusive: 44.7 µM [inhibitor, partial curve, poor fit]"},
      {"smiles": "O=S(=O)(c1ccc(-c2nnc(SCc3ccccc3)o2)cc1)N1CCCC1", "activity, negative = inhibition": "inactive: -2.64% [at 102 µM]"},
      {"smiles": "Cc1ccc(S(=O)(=O)Nc2cc(C)cn(Cc3ccc(F)cc3)c2=O)cc1", "activity, negative = inhibition": "inactive: -15.2% [at 102 µM]"},
      {"smiles": "CCC(=O)Nc1ccc2c(c1)nc(CCN1CCCCC1)n2C", "Potency": "inconclusive: 79.4 µM [inhibitor, single point]"},
      {"smiles": "CCNc1nc(NCC)n2c(SCC(=O)Nc3ccc(CC)cc3)nnc2n1", "Potency": "active: 2.51 µM"},
      {"smiles": "O=C(CN1CCN(c2ccccc2)CC1)c1c[nH]c2ccccc12", "activity, negative = inhibition": "inactive: 4.99% [at 2.33 µM]"},
      {"smiles": "Cc1nn2c3c(cnc2c1-c1ccccc1)C(=O)CC(c1ccco1)C3", "note": "(centres undefined)", "Potency": "inconclusive: 0.891 µM [inhibitor, partial curve, poor fit]"},
      {"smiles": "O=C(Nc1nc2c(s1)CCCC2)c1ccc2ncsc2c1", "Potency": "inconclusive: 25.1 µM [inhibitor, single point]"},
      {"smiles": "S=c1[nH]nc(CCc2ccccc2)n1-c1ccccc1", "Potency": "active: 1.41 µM"},
      {"smiles": "COc1ccc(CCNc2oc(COc3ccc(Br)cc3)nc2C#N)cc1OC", "Potency": "active: 39.8 µM"},
      {"smiles": "CCCNS(=O)(=O)c1ccc(CCC(=O)Nc2ccc3c(c2)OCCO3)cc1", "Potency": "inconclusive: 100 µM [inhibitor, single point]"},
      {"smiles": "Cc1c(N/N=C(\\C#N)C(=O)c2ccccc2)c(=O)n(-c2ccccc2)n1C", "Potency": "inconclusive: 22.4 µM [inhibitor, single point]"},
      {"smiles": "O=C(NC1CCCCC1)C(c1ccccc1)N1CCc2ccccc21", "note": "(centres undefined)", "Potency": "inconclusive: 79.4 µM [inhibitor, partial curve, poor fit]"},
      {"smiles": "Cc1cccc(C(=O)NC(=S)Nc2ccc(S(=O)(=O)N(C)c3ccccc3)cc2)c1", "Potency": "inconclusive: 3.16 µM [inhibitor, partial curve, poor fit]"},
      {"smiles": "COc1cc(OC)cc(-n2nnnc2SCC(=O)NCc2ccc3c(c2)OCO3)c1", "Potency": "inconclusive: 56.2 µM [inhibitor, single point]"},
      {"smiles": "CCc1ccc(NC2=CC(=O)C(=O)c3ccccc32)cc1", "activity, negative = inhibition": "inactive: 4.21% [at 0.501 µM]"},
      {"smiles": "N#Cc1c(-c2ccccc2Cl)noc1/C=C/Nc1ccc(C(=O)O)cc1", "Potency": "inconclusive: 89.1 µM [inhibitor, partial curve, poor fit]"},
      {"smiles": "Cc1cc(C)nc(SCC(=O)Nc2ncc(Cc3ccc(Cl)c(Cl)c3)s2)n1", "Potency": "inconclusive: 79.4 µM [inhibitor, partial curve, poor fit]"},
      {"smiles": "CCC[C@@H](CN[C@@H](CNC)[C@H](C)CC)NCC1CCC(C(C)(C)C)CC1", "note": "(some centres undefined)", "activity, negative = inhibition": "inactive: -25.5% [at 102 µM]"},
      {"smiles": "CC(=O)N1CCN(c2ccc(Nc3ncnc4c3oc3ccccc34)cc2)CC1", "Potency": "inconclusive: 17.8 µM [inhibitor, partial curve, poor fit]"},
      {"smiles": "O=C(C1=C(O)C(=O)N(CCc2ccccc2)C1c1cccs1)c1ccco1", "note": "(centres undefined)", "Potency": "active: 50.1 µM"}
    ]}
  ]
}
